In article PMC9922296, “Mechanistic insights into RNA surveillance by the canonical poly(A) polymerase Pla1 of the MTREC complex” (Nature Communications, 2023):
These are yes or no findings as the source states them, for the method shown. Binding seen in cells or lysates may run through a third protein. Some entries that bind do so weakly or less than the wild type. Where a sequence is shown, tags or fusion partners need not be part of it.

Tests used:
[1] = biological target: T1, C-terminally Flag-ProtA-tagged wild-type Red1 (S. pombe) (UniProt Q9UTR8); experiment: co-IP; tandem affinity purification of Red1-FTP from S. pombe strains with Pla1-HA; inputs and final eluates blotted with anti-HA and anti-Flag
T1 sequence: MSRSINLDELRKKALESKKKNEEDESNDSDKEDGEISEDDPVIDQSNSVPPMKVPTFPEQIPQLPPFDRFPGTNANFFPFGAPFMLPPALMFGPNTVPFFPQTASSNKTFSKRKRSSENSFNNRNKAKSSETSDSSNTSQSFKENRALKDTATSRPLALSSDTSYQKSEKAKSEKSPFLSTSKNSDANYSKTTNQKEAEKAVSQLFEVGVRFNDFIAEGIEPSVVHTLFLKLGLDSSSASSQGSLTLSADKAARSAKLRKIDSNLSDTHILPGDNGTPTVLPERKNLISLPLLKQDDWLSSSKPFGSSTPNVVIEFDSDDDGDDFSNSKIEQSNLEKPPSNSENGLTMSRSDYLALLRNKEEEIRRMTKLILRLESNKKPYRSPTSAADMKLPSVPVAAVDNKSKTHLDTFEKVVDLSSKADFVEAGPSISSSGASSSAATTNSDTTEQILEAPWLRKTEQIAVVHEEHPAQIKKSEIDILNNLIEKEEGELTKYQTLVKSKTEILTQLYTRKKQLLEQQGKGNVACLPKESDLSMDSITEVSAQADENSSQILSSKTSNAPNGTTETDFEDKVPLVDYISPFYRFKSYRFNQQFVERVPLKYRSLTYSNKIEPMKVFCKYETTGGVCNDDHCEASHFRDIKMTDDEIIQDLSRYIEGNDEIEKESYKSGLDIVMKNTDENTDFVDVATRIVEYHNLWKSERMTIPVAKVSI

[2] = biological target: T2, C-terminally Flag-ProtA-tagged Red1 Δ288-345 deletion mutant (S. pombe) (UniProt Q9UTR8); experiment: as above
T2 sequence: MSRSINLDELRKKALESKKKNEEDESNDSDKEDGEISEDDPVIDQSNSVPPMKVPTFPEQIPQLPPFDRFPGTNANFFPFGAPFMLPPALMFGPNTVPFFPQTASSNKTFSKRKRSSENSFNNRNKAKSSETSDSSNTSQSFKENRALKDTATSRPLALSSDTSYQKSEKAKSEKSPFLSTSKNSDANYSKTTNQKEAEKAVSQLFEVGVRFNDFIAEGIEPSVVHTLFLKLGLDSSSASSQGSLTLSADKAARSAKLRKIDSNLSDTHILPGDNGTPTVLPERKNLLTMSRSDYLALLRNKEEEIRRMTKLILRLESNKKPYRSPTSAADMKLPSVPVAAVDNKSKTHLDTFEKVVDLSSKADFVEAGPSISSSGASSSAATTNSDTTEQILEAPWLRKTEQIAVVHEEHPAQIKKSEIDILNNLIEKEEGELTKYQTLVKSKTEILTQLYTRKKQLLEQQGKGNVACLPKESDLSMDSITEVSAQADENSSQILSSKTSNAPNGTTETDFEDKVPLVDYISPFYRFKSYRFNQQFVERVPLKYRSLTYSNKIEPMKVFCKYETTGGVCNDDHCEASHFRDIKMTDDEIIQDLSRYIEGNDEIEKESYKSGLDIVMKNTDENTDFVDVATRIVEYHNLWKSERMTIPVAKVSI

binding [1]: binds
binding [2]: no binding
B1: HA-tagged Pla1 (genomic copy) (enzyme, UniProt Q10295 1-566)
chain: MTTKQWGITPPISTAPATEQENALNTALINELKNQNLFESPAESEKRVKVLDELQQITTEFVKKVSLAKHMNEKMANEAGGKIFTYGSYRLGVYGPGSDIDTLVVVPKHVSRDNFFQDLEPMLREREEVTDLAAVPDAYVPIIKFKFLGISIDLIFARLSVPRVPRDLELSDNNLLKGVEERCVLSLNGTRVTDQILQLVPNRAVFKHALRAIKFWAQRRAIYANVVGFPGGVAWAMMVARICQLYPNAVSSVIVAKFFRILHQWNWPQPILLKPIEDGPLQVRIWNPKLYPSDKAHRMPIITPAYPSMCATHNITLSTQTIILREMVRAGEIADQIMVKALPWSALFQKHDFFHRYKHYLTITAAAKTAEAQLKWAGLVESKLRHLVTRLELVDAIALAHPFNKGFDKVYNCSSEEEAQQVASGVTLEVAYESTDHEKLANDTVNEEKADNTESKADGSENGEKQIFPVYTTTCYIGLELEKKKGHPIKRLDISWPTQEFYELCKKWDKYDDTLMNVFIKNTKNTALPDEVFEPGEERPKATKKRSTADTAHSTEQLKRQKVSTA
